This note sets out measurements from the supplement of paper PMC4604168 (melanoma cell lines).

The other results are listed elsewhere or left out. Repeats are few or missing, and single values can be far off.
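Further: cells treated in 1,536-well plates, then fixed and DAPI-stained, with nuclei counted from automated high-throughput microscope images.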

The subject of this assay is IPC-298. Nature of the assay: cell count relative to DMSO control; melanoma cells; higher = more viable cells. As to conditions: library dose: standard library concentration; 72 h.
Consider `Cc1cc(Nc2cc(N3CCN(C)CC3)nc(Sc3ccc(NC(=O)C4CC4)cc3)n2)n[nH]1` [Tozasertib] + CC(=O)O[C@@]12CO[C@@H]1C[C@H](O)[C@@]1(C)C(=O)[C@H](O)C3=C(C)[C@@H](OC(=O)[C@H](O)[C@@H](NC(=O)OC(C)(C)C)c4ccccc4)C[C@@](O)([C@@H](OC(=O)c4ccccc4)[C@H]21)C3(C)C [Docetaxel] (first compound 0.03 µM, partner dose 0.0005 µM), for which the cell count was found to be 42.3%.
Under `CC[C@]1(O)C[C@H]2CN(CCc3c([nH]c4ccccc34)[C@@](C(=O)OC)(c3cc4c(cc3OC)N(C=O)[C@H]3[C@@](O)(C(=O)OC)[C@H](OC(C)=O)[C@]5(CC)C=CCN6CC[C@]43[C@@H]65)C2)C1` [vincristine] + Oc1nc(-c2ccc(C(F)(F)F)cc2)nc2c1CSCC2 [XAV939] (first compound 0.0005 µM, partner dose 10 µM) stands 94.9%; under `CC[C@]1(O)C[C@H]2CN(CCc3c([nH]c4ccccc34)[C@@](C(=O)OC)(c3cc4c(cc3OC)N(C=O)[C@H]3[C@@](O)(C(=O)OC)[C@H](OC(C)=O)[C@]5(CC)C=CCN6CC[C@]43[C@@H]65)C2)C1` [vincristine] + c1cc(-c2cnn3cc(-c4ccc(OCCN5CCCCC5)cc4)cnc23)ccn1 [Dorsomorphin] (first compound 0.0005 µM, partner dose 2 µM), 64.6%.
For `Cc1cc(Nc2cc(N3CCN(C)CC3)nc(Sc3ccc(NC(=O)C4CC4)cc3)n2)n[nH]1` [Tozasertib] + COc1ccc(-c2ccc3c(N4CCOCC4)nc(N4C[C@@H](C)O[C@@H](C)C4)nc3n2)cc1CO [KU0063794] (first compound 0.03 µM, partner dose 0.1 µM) the value was 75.8%; for `CC[C@]1(O)C[C@H]2CN(CCc3c([nH]c4ccccc34)[C@@](C(=O)OC)(c3cc4c(cc3OC)N(C=O)[C@H]3[C@@](O)(C(=O)OC)[C@H](OC(C)=O)[C@]5(CC)C=CCN6CC[C@]43[C@@H]65)C2)C1` [vincristine] + O=C(Nc1cc(C(F)(F)F)cc(C(F)(F)F)c1)c1cc(Cl)ccc1O [IMD0354] (first compound 0.0005 µM, partner dose 0.08 µM), 108%; for `N#CC[C@H](C1CCCC1)n1cc(-c2ncnc3[nH]ccc23)cn1` [ruxolitinib] + Nc1cccc2c1CN(C1CCC(=O)NC1=O)C2=O [lenalidomide] (first compound 5 µM, partner dose 5 µM), 89.9%.
Under `CC[C@]1(O)C[C@H]2CN(CCc3c([nH]c4ccccc34)[C@@](C(=O)OC)(c3cc4c(cc3OC)N(C=O)[C@H]3[C@@](O)(C(=O)OC)[C@H](OC(C)=O)[C@]5(CC)C=CCN6CC[C@]43[C@@H]65)C2)C1` [vincristine] + COCC[n+]1c2c(n(Cc3cnccn3)c1C)C(=O)c1ccccc1C2=O [YM155] (first compound 0.0005 µM, partner dose 0.002 µM) stands 54.8%; under `Cc1cc(Nc2cc(N3CCN(C)CC3)nc(Sc3ccc(NC(=O)C4CC4)cc3)n2)n[nH]1` [Tozasertib] + O=C(CCCCCCC(=O)Nc1ccccc1)NO [vorinostat] (first compound 0.03 µM, partner dose 0.4 µM), 76.2%; under `N#CC[C@H](C1CCCC1)n1cc(-c2ncnc3[nH]ccc23)cn1` [ruxolitinib] + CN(c1ncccc1CNc1nc(Nc2ccc3c(c2)CC(=O)N3)ncc1C(F)(F)F)S(C)(=O)=O [PF562271] (first compound 5 µM, partner dose 0.4 µM), 80.6%.
As to `N#CC[C@H](C1CCCC1)n1cc(-c2ncnc3[nH]ccc23)cn1` [ruxolitinib] + CC(=O)O[C@@]12CO[C@@H]1C[C@H](O)[C@@]1(C)C(=O)[C@H](O)C3=C(C)[C@@H](OC(=O)[C@H](O)[C@@H](NC(=O)OC(C)(C)C)c4ccccc4)C[C@@](O)([C@@H](OC(=O)c4ccccc4)[C@H]21)C3(C)C [Docetaxel] (first compound 5 µM, partner dose 0.0005 µM), the cell count came to 35.1%.
On to `N#CC[C@H](C1CCCC1)n1cc(-c2ncnc3[nH]ccc23)cn1` [ruxolitinib] + C=C(c1ccc(C(=O)O)cc1)c1cc2c(cc1C)C(C)(C)CCC2(C)C [Bexarotene] (first compound 5 µM, partner dose 10 µM), for which the cell count was 73.2%.
